Measured values as given in publication PMC9019090.
Results are given in words; binding and its absence hold for the method and conditions named. Binding seen in cells or lysates may run through a third protein. Some entries that bind do so weakly or less than the wild type. For some of these results: Sequences can lack the tags named with a protein.

Protein sequences, listed by entry. Tags and fused reporters are not part of them. Lines headed by an entry give the natural chain unless they say otherwise; changes in a name come on top.
UniProt Q969H0: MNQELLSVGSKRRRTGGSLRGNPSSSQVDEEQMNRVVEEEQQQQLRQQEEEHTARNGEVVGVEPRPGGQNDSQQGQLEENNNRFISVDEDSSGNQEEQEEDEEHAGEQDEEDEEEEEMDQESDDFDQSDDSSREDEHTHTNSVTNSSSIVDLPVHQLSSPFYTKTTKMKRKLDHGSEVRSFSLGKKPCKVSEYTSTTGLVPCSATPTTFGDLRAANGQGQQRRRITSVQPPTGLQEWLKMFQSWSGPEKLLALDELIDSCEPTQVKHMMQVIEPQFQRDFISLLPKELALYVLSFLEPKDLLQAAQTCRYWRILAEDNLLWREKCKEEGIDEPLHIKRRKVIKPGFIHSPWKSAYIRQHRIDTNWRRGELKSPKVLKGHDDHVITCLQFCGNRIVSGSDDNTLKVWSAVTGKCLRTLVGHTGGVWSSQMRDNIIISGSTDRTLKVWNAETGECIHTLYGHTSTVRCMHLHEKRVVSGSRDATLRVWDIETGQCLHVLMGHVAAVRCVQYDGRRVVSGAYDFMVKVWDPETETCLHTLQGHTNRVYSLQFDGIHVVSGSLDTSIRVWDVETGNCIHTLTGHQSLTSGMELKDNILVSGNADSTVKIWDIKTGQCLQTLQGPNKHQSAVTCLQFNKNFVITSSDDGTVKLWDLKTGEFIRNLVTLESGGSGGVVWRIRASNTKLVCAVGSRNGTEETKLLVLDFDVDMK

Key:
[1] = target: T1, nuclear receptor ERRα (endogenous, HepG2) (human (endogenous in HepG2)) (UniProt P11474); assay: co-IP; endogenous ERRα and FBXW7 in HepG2 cells treated with MG132 (Fig. 4c; control cells of Fig. 4h); lysates in buffer K with 0.3% CHAPS, protein A Dynabeads pre-bound with antibody, washed with PBS-T, immunoblot
T1 sequence: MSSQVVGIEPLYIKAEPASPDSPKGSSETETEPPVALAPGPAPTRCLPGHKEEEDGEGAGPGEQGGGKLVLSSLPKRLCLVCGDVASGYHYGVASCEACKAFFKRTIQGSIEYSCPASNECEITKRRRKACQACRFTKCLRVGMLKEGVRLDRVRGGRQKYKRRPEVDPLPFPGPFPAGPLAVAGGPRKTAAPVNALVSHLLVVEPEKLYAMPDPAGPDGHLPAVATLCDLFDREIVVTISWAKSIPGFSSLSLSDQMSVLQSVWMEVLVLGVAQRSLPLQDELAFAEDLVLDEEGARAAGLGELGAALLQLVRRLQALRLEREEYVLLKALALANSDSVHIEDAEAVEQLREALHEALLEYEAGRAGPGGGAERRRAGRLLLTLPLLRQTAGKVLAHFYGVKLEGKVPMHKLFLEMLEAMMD

[2] = target: T1, nuclear receptor ERRα (endogenous, HepG2) (human (endogenous in HepG2)); assay: co-IP; endogenous ERRα and FBXW7 in GSK3β-silenced HepG2 cells treated with MG132 (Fig. 4h)
[3] = target: T2, ERRα (in HEK293T cells transfected with HA-GSK3β WT or CA mutant, Fig. 4i) (UniProt P11474); assay: co-IP; FBXW7 and ERRα in HEK293T cells transiently transfected with HA-GSK3β WT or CA (S9A) mutant, treated with MG132 prior to collection (Fig. 4i)
T2 sequence: T1 sequence

[4] = target: T3, ERRα (co-IP with the 6 E3 candidates, Supplementary Fig. 4e) (UniProt P11474); assay: co-IP; the 6 E3 candidates and ERRα (Supplementary Fig. 4e); cells and constructs not shown
T3 sequence: T1 sequence

Flag-ERRα WT = target: T4, Flag-ERRα WT (UniProt P11474); assay: co-IP; co-IP and reciprocal co-IP from lysates of 293T cells transiently co-expressing V5-FBXW7 and Flag-ERRα WT or 3SA mutant (Fig. 4d); buffer K with 0.3% CHAPS, protein A Dynabeads
T4 sequence: T1 sequence

V5-FBXW7 = V5-FBXW7 (UniProt Q969H0); assay: as above

With “E3 ligase FBXW7 (endogenous, HepG2) (from UniProt Q969H0 1-707)” the binding [1] was “binds” and the binding [2] was “no binding (condition: in GSK3β-silenced HepG2 cells)”.

In the case of “FBXW7 (in HEK293T cells transfected with HA-GSK3β WT or CA mutant, Fig. 4i) (from UniProt Q969H0 1-707)”, the binding [3] is reported as “binds”.

In the case of V5-FBXW7 (from UniProt Q969H0 1-707), the binding [4] is reported as “binds” and the binding (Flag-ERRα WT) is reported as “binds”.

B1: Flag-ERRα WT (protein, UniProt P11474 1-423)
chain: T1 sequence
For B1, the binding (V5-FBXW7) was “binds”.

B2: E3 ligase FBXO11 (protein, UniProt Q86XK2 1-927)
chain: MNSVRAANRRPRRVSRPRPVQQQQQQPPQQPPPQPPQQQPPQQQPPPPPQQQQQQQPPPPPPPPPPLPQERNNVGERDDDVPADMVAEESGPGAQNSPYQLRRKTLLPKRTACPTKNSMEGASTSTTENFGHRAKRARVSGKSQDLSAAPAEQYLQEKLPDEVVLKIFSYLLEQDLCRAACVCKRFSELANDPILWKRLYMEVFEYTRPMMHPEPGKFYQINPEEYEHPNPWKESFQQLYKGAHVKPGFAEHFYSNPARYKGRENMLYYDTIEDALGGVQEAHFDGLIFVHSGIYTDEWIYIESPITMIGAAPGKVADKVIIENTRDSTFVFMEGSEDAYVGYMTIRFNPDDKSAQHHNAHHCLEITVNCSPIIDHCIIRSTCTVGSAVCVSGQGACPTIKHCNISDCENVGLYITDHAQGIYEDNEISNNALAGIWVKNHGNPIIRRNHIHHGRDVGVFTFDHGMGYFESCNIHRNRIAGFEVKAYANPTVVRCEIHHGQTGGIYVHEKGRGQFIENKIYANNFAGVWITSNSDPTIRGNSIFNGNQGGVYIFGDGRGLIEGNDIYGNALAGIQIRTNSCPIVRHNKIHDGQHGGIYVHEKGQGVIEENEVYSNTLAGVWVTTGSTPVLRRNRIHSGKQVGVYFYDNGHGVLEDNDIYNHMYSGVQIRTGSNPKIRRNKIWGGQNGGILVYNSGLGCIEDNEIFDNAMAGVWIKTDSNPTLRRNKIHDGRDGGICIFNGGRGLLEENDIFRNAQAGVLISTNSHPILRKNRIFDGFAAGIEITNHATATLEGNQIFNNRFGGLFLASGVNVTMKDNKIMNNQDAIEKAVSRGQCLYKISSYTSYPMHDFYRCHTCNTTDRNAICVNCIKKCHQGHDVEFIRHDRFFCDCGAGTLSNPCTLAGEPTHDTDTLYDSAPPIESNTLQHN
In the case of B2, the binding [4] is reported as “binds”.
